The values that follow come from publication PMC9911399, “Two distinct binding modes provide the RNA-binding protein RbFox with extraordinary sequence specificity”.

Residue numbers refer to the chain shown, from its start. This is one part of the list.

T1: RBFOX1 RRM (Homo sapiens, UniProt Q9NWB1 109-208)
T1 sequence: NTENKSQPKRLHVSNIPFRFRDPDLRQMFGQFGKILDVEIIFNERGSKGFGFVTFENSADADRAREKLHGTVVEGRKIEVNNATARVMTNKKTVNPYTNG

B1: CUGGACC (DNA:RNA)
RNA: GGGAGACCGGAAUUCAGAUUGUCCCUGGACCUUAAAUCCCGUCGUAGCCACCA
DNA 1: CAATCTGAATTCCGGTCTCCC
DNA 2: TGGTGGCTACGACGGGATT
B2: GUUGAGC (DNA:RNA)
RNA: B1 RNA with C25G, G27U, C30G
DNA 1: CAATCTGAATTCCGGTCTCCC
DNA 2: TGGTGGCTACGACGGGATT
B3: CAGGUUC (DNA:RNA)
RNA: B1 RNA with U26A, A29U, C30U
DNA 1: CAATCTGAATTCCGGTCTCCC
DNA 2: TGGTGGCTACGACGGGATT
B4: AAAGGAA (DNA:RNA)
RNA: B1 RNA with C25A, U26A, G27A, A29G, C30A, C31A
DNA 1: CAATCTGAATTCCGGTCTCCC
DNA 2: TGGTGGCTACGACGGGATT
B5: GGAAGCU (DNA:RNA)
RNA: B1 RNA with C25G, U26G, G27A, G28A, A29G, C31U
DNA 1: CAATCTGAATTCCGGTCTCCC
DNA 2: TGGTGGCTACGACGGGATT
B6: AAUUUGA (DNA:RNA)
RNA: GGGAGACCGGAAUUCAGAUUGUCCAAUUUGAUUAAAUCCCGUCGUAGCCACCA
DNA 1: CAATCTGAATTCCGGTCTCCC
DNA 2: TGGTGGCTACGACGGGATT
B7: UCUAGAU (DNA:RNA)
RNA: B6 RNA with A25U, A26C, U28A, U29G, G30A, A31U
DNA 1: CAATCTGAATTCCGGTCTCCC
DNA 2: TGGTGGCTACGACGGGATT
B8: UCUCCGU (DNA:RNA)
RNA: B6 RNA with A25U, A26C, U28C, U29C, A31U
DNA 1: CAATCTGAATTCCGGTCTCCC
DNA 2: TGGTGGCTACGACGGGATT
B9: UACCGGU (DNA:RNA)
RNA: B6 RNA with A25U, U27C, U28C, U29G, A31U
DNA 1: CAATCTGAATTCCGGTCTCCC
DNA 2: TGGTGGCTACGACGGGATT
B10: CAGACAG (DNA:RNA)
RNA: B1 RNA with U26A, G28A, A29C, C30A, C31G
DNA 1: CAATCTGAATTCCGGTCTCCC
DNA 2: TGGTGGCTACGACGGGATT
B11: CGUUGGC (DNA:RNA)
RNA: B6 RNA with A25C, A26G, U29G, A31C
DNA 1: CAATCTGAATTCCGGTCTCCC
DNA 2: TGGTGGCTACGACGGGATT
B12: AAGUGUU (DNA:RNA)
RNA: B6 RNA with U27G, U29G, G30U, A31U
DNA 1: CAATCTGAATTCCGGTCTCCC
DNA 2: TGGTGGCTACGACGGGATT
B13: GGCAUUA (DNA:RNA)
RNA: B6 RNA with A25G, A26G, U27C, U28A, G30U
DNA 1: CAATCTGAATTCCGGTCTCCC
DNA 2: TGGTGGCTACGACGGGATT
B14: UCUUAGU (DNA:RNA)
RNA: B6 RNA with A25U, A26C, U29A, A31U
DNA 1: CAATCTGAATTCCGGTCTCCC
DNA 2: TGGTGGCTACGACGGGATT
B15: AGUUUUA (DNA:RNA)
RNA: B6 RNA with A26G, G30U
DNA 1: CAATCTGAATTCCGGTCTCCC
DNA 2: TGGTGGCTACGACGGGATT
B16: GGAUAUA (DNA:RNA)
RNA: B6 RNA with A25G, A26G, U27A, U29A, G30U
DNA 1: CAATCTGAATTCCGGTCTCCC
DNA 2: TGGTGGCTACGACGGGATT
B17: CGGAAGA (DNA:RNA)
RNA: B1 RNA with U26G, G28A, C30G, C31A
DNA 1: CAATCTGAATTCCGGTCTCCC
DNA 2: TGGTGGCTACGACGGGATT
B18: UUUAAUC (DNA:RNA)
RNA: B1 RNA with C25U, G27U, G28A, C30U
DNA 1: CAATCTGAATTCCGGTCTCCC
DNA 2: TGGTGGCTACGACGGGATT
B19: CGGGUCU (DNA:RNA)
RNA: B1 RNA with U26G, A29U, C31U
DNA 1: CAATCTGAATTCCGGTCTCCC
DNA 2: TGGTGGCTACGACGGGATT
B20: GGAAUAG (DNA:RNA)
RNA: B6 RNA with A25G, A26G, U27A, U28A, G30A, A31G
DNA 1: CAATCTGAATTCCGGTCTCCC
DNA 2: TGGTGGCTACGACGGGATT

For the assay, the target named is T1, RBFOX1 RRM. The assay can be described thus: EMSA; HiTS-Eq, 1 nM pool, 10 min; buffer printed only for the single-RNA assays: 10 mM Tris pH 7.5, 150 mM NaCl, 3.4 mM EDTA, 0.001% NP-40, 30 C. The note with it: tags: His6 N-terminal (pET28a); label: 5' 32P. The procedure, abridged:
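Purified RbFox RRM, wild type or mutant, was incubated for 10 min in 50 µL with 1 nM of a 5′-radiolabelled RNA pool carrying 7 randomized nucleotides, whose flanks were annealed to DNA oligonucleotides, over a series of increasing protein concentrations. Unbound RNA was resolved on 8% native PAGE, cut out, reverse-transcribed, barcoded by PCR and sequenced on an Illumina HiSeq 2500. Relative association constants were derived from changes in read counts for each RNA species versus the control reaction and normalised to the cognate motif.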
For the molecule B1, the binding signal is 0.00992 KA relative to UGCAUGU.
For the molecule B2, the binding signal was 0.021 KA relative to UGCAUGU.
For the molecule B3, the binding signal is 0.0143 KA relative to UGCAUGU.
With B4, the binding signal was 0.00479 KA relative to UGCAUGU.
As for B5, the figure is 0.0135 KA relative to UGCAUGU; as for B6, 0.0115 KA relative to UGCAUGU; as for B7, 0.0067 KA relative to UGCAUGU.
As for B8, the figure is 0.0115 KA relative to UGCAUGU; as for B9, 0.00746 KA relative to UGCAUGU.
The value for B10 was 0.00766 KA relative to UGCAUGU.
As for B11, the binding signal was 0.017 KA relative to UGCAUGU.
With B12, the binding signal was 0.01 KA relative to UGCAUGU.
With B13, the binding signal is 0.00291 KA relative to UGCAUGU.
As to B14, the binding signal is 0.0121 KA relative to UGCAUGU.
The value for B15 was 0.00324 KA relative to UGCAUGU.
Take B16: the binding signal was 0.00821 KA relative to UGCAUGU.
As for B17, the figure is 0.0191 KA relative to UGCAUGU; as for B18, 0.00539 KA relative to UGCAUGU; as for B19, 0.0296 KA relative to UGCAUGU.
As to B20, the binding signal was 0.0101 KA relative to UGCAUGU.
